Measured values from patent publication US20260151501A1, “ANTIBODY-DRUG CONJUGATE COMPRISING ANTI-CLAUDIN-18.2 ANTIBODY, AND THERAPEUTIC USE THEREOF FOR CANCER” (ABTIS CO., LTD., priority 2022, published 2026).

What was measured:
[1] = system: AGS cell line; experiment: Cytotoxicity (CellTiter-Glo cell viability), AGS; type: cell-based
Experimental: To measure cell viability in cytotoxicity experiments, the measurement of luminescence using GloMax® Discover was used, and the measurement method was according to the equipment manual.
Four types of cell lines (MIA PaCa-2˜CLDN18.2, PATU8988S, parental MIA PaCa-2 (CLDN18.2-), SNU601, NUGC-4, and AGS) were prepared. At this time, MIA PaCa-2˜CLDN18.2 and PATU8988S are CLDN18.2-positive pancreatic cancer cell lines. MIA PaCa-2 (CLDN18.2-) is a CLDN18.2-negative pancreatic cancer cell line. SNU601 and NUGC-4 are CLDN18.2-positive gastric cancer cell lines. AGS is a CLDN18.2-negative gastric cancer cell line.
The prepared cell lines were cultured in DMEM containing 10% FBS and 1% penicillin/streptomycin (MIA PaCa-2˜CLDN18.2, MIA PaCa-2 (CLDN18.2-)), RPMI1640 containing 10% FBS and 1% penicillin/streptomycin (SNU601, NUGC-4, and AGS), and DMEM containing 5% FBS, 5% horse serum, 1% penicillin/streptomycin, and […] L-glutamine (PATU8988S) in an incubator under the conditions of 37° C. and 5% CO2. […]
Changes in cell viability according to treatment of each test substance were measured using the same method as the CellTiter-Glo manual.
The measured results were used for a regression analysis in GraphPad PRISM® 9.0 software to calculate IC50. The cytotoxicity of each test substance was evaluated based on the calculated values.

[2] = biological target: T1, claudin18.1 protein (CLDN18.1) (Homo sapiens, UniProt P56856); experiment: Cell-based ELISA binding to Claudin18.1 CHO-K1 cells
T1 construct: expressed in transfected cells; host or cells: CHO-K1 (transient, pcDNA3.1 vector)
T1 sequence (P56856 whole entry): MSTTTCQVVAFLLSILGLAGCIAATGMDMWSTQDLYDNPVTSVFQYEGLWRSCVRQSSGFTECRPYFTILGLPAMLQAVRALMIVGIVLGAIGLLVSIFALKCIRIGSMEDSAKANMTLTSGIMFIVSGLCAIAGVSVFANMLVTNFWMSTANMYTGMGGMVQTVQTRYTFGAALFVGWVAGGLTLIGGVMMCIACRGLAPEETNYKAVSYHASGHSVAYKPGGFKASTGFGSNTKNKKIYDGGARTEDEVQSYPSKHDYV
Experimental: OD value measurement through ELISA was performed by measuring the absorbance at 450 nm using a UV-Vis spectrometer.
A CHO-K1 cell line (hereinafter, referred to as “Claudin18.1 CHO-K1”) into which a gene (SEQ ID NO: 18) encoding the claudin18.1 protein (CLDN18.1) was transiently transfected, a CHO-K1 cell line (hereinafter, referred to as “Claudin18.2 CHO-K1”) into which a gene (SEQ ID NO: 19) encoding the claudin18.2 protein (CLDN18.2) was transiently transfected, and a CHO-K1 cell line (hereinafter, referred to as “MOCK CHO-K1”) into which only a NOCK vector (empty vector) was transiently transfected were prepared. At this time, a pcDNA3.1 vector was used for Claudin18.1 CHO-K1, and a pcDNA3.1 (+) vector was used for Claudin18.2 CHO-K1. […]
Transient transfection was performed according to the TransIT2020 manual, the transfected cells were plated on a 96-well plate for culture, and then treated with each of antibody-A and ADC-A. Thereafter, cell-based enzyme-linked immunosorbent assay (ELISA) was performed, and optical density (OD) values were measured.
The measured results were used for a regression analysis using GraphPad PRISM® 9.0 software to calculate EC50 and Bmax. The cell binding affinity of antibody-A and ADC-A was evaluated based on the calculated values.

[3] = system: MIA PaCa-2 (CLDN18.2-) cell line; experiment: Real-time cellular internalization, MIA PaCa-2 (CLDN18.2-); type: cell-based; settings: no CLDN18.2 expression
Experimental: Real-time internalization measurement was performed according to the manuals of the reagents and equipment.
The prepared cell lines were cultured in DMEM containing 10% FBS and 1% penicillin/streptomycin (MIA PaCa-2˜CLDN18.2, MIA PaCa-2 (CLDN18.2-)) and RPMI1640 containing 10% FBS and 1% penicillin/streptomycin (SNU601) in an incubator under the conditions of 37° C. and 5% CO2. The MIA PaCa (CLDN18.2-), MIA PaCa-2˜CLDN18.2, and SNU601 cell lines were plated on 96-well plates at 3,000 to 5,000 cells/well.
Samples for internalization verification, antibody-A and ADC-A, were prepared according to the IncuCyte® Fabfluor-pH reagent manual.
Finally, antibody-A and ADC-A were diluted to each of 8, 4, and 2 μg/mL, and designated wells were treated with 50 μL of each. The internalization levels of the plates mixed with the sample were measured every hour using the IncuCyte® Live-Cell Analysis System.

[4] = Plasma stability, human plasma; type: in vitro ADME; settings: 37° C., 15 days, relative to day 0 (5 minutes)
Experimental: (§1) Centrifugation in the pretreatment process was performed under the conditions of 13,000 rpm and 4° C. for 10 minutes.
(§2) Human, monkey, rat, and mouse plasma were prepared.
(§3) For example, when the linker was cleaved in ADC-A, it was not included in total ADC.

[5] = Plasma stability, rat plasma; type: in vitro ADME; settings: 37° C., 15 days, relative to day 0 (5 minutes)
Experimental: as §1, §2, §3

Molecule	IC50 ([1]; AGS (CLDN18.2−), gastric cancer) [nM]	binding to Claudin18.1 CHO-K1 cell line [2]	internalization [3]	total antibody maintained [4] [%]	total antibody maintained [5] [%]	toxicity in CLDN18.2-negative cell lines ([1]; up to the highest treatment concentration, AGS)	total ADC maintained [4] [%]	total ADC maintained [5] [%]
Antibody-A: anti-claudin18.2 antibody with heavy chain of SEQ ID NO: 16 and light chain of SEQ ID NO: 17 (antibody, heavy chain of Claudin18.2 antibody; light chain of Claudin18.2 antibody) heavy: QVQLVESGGGVVQPGRSLRLSCAASGFSLTTYGVHWVRQAPGKGLEWVAVIWAGGSTNYNSALMSRFTISRDNSKNTLYLQMNSLRAEDTAVYYCARAAYYGNGLDYWGQGTMVTVSS[… human IgG1 constant region …] light: DIVMTQSPLSLPVTPGEPASISCKSSQTLLNSGNQKNYLTWYLQKPGQSPQLLIYWASTGESGVPDRFSGSGSGTDFTLKISRVEAEDVGVYYCQNAYFYPFTFGGGTKVEIKRTVAAPSVFIFPPSDEQLKSGTASVVCLLNNFYPREAKVQWKVDNALQSGNSQESVTEQDSKDSTYSLSSTLTLSKADYEKHKVYACEVTHQGLSSPVTKSFNRGEC	> 66.7	did not bind	not internalized	85.2	68.2			
ADC-A (conjugate) heavy: QVQLVESGGGVVQPGRSLRLSCAASGFSLTTYGVHWVRQAPGKGLEWVAVIWAGGSTNYNSALMSRFTISRDNSKNTLYLQMNSLRAEDTAVYYCARAAYYGNGLDYWGQGTMVTVSS[… human IgG1 constant region …] light: DIVMTQSPLSLPVTPGEPASISCKSSQTLLNSGNQKNYLTWYLQKPGQSPQLLIYWASTGESGVPDRFSGSGSGTDFTLKISRVEAEDVGVYYCQNAYFYPFTFGGGTKVEIKRTVAAPSVFIFPPSDEQLKSGTASVVCLLNNFYPREAKVQWKVDNALQSGNSQESVTEQDSKDSTYSLSSTLTLSKADYEKHKVYACEVTHQGLSSPVTKSFNRGEC		did not bind	not internalized	74.8	64.0	almost no toxicity	75.1	50.3
